The results in this text go back to the supplement of paper PMC11417369.

± gives the standard deviation of the averaged measurements. The list shows a part of the results.

This assay concerns PfAP2-G AP2 domain (GST-tagged). Nature of the assay: gcPBM binding intensity (ln(normalized median fluorescence intensity)); higher = stronger DNA binding. The method, boiled down:
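Using an Agilent 4 × 180k array, primer-extended double-stranded 36-bp intergenic genomic probes and negative controls were exposed for 1 h to GST-fused P. falciparum DNA-binding domains expressed in E. coli. Binding was carried out in 1× PBS with 1% milk, 0.2 mg/ml BSA, 0.5% salmon testes DNA and 0.03% Triton X-100, and protein was detected with Alexa488 anti-GST antibody and a 488 nm scan. Binding intensity is the highest Masliner-normalised natural-log median intensity across replicate spots of either probe orientation.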
“TTCATATAGAATTGTACACACAAAAACGACATTGTG [CACACA_site7061]”: the “gcPBM binding intensity (ln)” value stood at 11.4 ± 0.86. In the case of “AAAAAATAATATTGTACACACATAAATTCTTTGTCA [CACACA_site5187]” it was 11.3 ± 0.79. For “ATGTATGGAAATTTTACACACAAGAGTAGTTTAAAA [CACACA_site1710]”, the “gcPBM binding intensity (ln)” value turned out to be 9.98 ± 0.13. Then “TATGTGTATACAATATGTACATATGTTAACTTGTAT [XGTACX_site872]”, with 11.3 ± 0.75; and “TTAAATAAATATAAGTGTACATACACACTTTACAAT [XGTACX_site6348]”, with 11.2 ± 0.85. Then “GCATATGTTCAGCGTTGTACATAAAAAAAAACATAT [XGTACX_site5974]”, with 11.3 ± 0.93; and “GCGTAATCTATTTGCACACTTATTTGTTCTTAAAAA [CACACA_site672]”, with 10.2 ± 0.14; and “TTTAATAAAAAAATTAAAAATAAAGAAAAAAAAAAA [CACACA_negctrl_site1464]”, with 9.6 ± 0.19. Then “AAATATATATAAAACTCACACATTATCTTATAACCA [CACACA_site5268]”, with 9.78 ± 0.085; and “TGAGATAACAAAAGTTGTACTTTTTTTTTTTTTTTT [XGTACX_site3004]”, with 11.6 ± 0.87; and “TTTTGAAAGTTTTTGTGTCCACATATATTTATATAT [XGTACX_site6563]”, with 11.4 ± 0.93.

Regarding “GTTTAAAGTTGAACAAGTACACATTTATATAAGGCA [XGTACX_site351]”, the “gcPBM binding intensity (ln)” value was 11.5 ± 0.95. In the case of “TTTATTTATTACTAAAGTACTAAATCATATAATTAT [XGTACX_site3654]” it was 10.6 ± 0.65.

For the sequence “TACTTTTTAAAAATGTTTTATATAATAAAAAGATAT [CACACA_negctrl_site678]”, the “gcPBM binding intensity (ln)” value amounted to 10 ± 0.2. For “AAAAAAAATAATATTGTACACACATAAATTCTTTGT [CACACA_site8654]”, the “gcPBM binding intensity (ln)” value worked out at 11.2 ± 0.67. Then “TTTTATAAATACACACGTACGTGTGCATAACGTTTT [XGTACX_site3199]”, with 11 ± 0.56; and “ATTATAAACCAGAATGCATGTAGATGAATCTTTTCT [TGCATGCA_site284]”, with 9.73 ± 0.2; and “TAAAAATATAAAACATGTACATATATGCATATATTT [XGTACX_site8093]”, with 11.1 ± 0.71. In the case of “ATATCATAAGTAGAAACACACAATTAGATTTTTTCC [CACACA_site2353]” it was 9.73 ± 0.15. On to “TATAAAAGAAACTATACACACATATTTTAAATATTT [CACACA_site2753]”, for which the “gcPBM binding intensity (ln)” value is 9.815 ± 0.064. In the case of “GTACTTGTATTATGCACACATATAATTAAACATATA [CACACA_site3312]” it was 10.6 ± 0.3; in that of “TAATTGAGCAAATGAGTGCACAGCATAAAGTATAGT [GTGCAC_site9497]”, 10.6 ± 0.22. Then “AAATTTAAAATAAGTAGTACATAATATAAATAAATA [XGTACX_site3592]”, with 11.6 ± 1. In the case of “TTTTTTTTTTTCAATAGTACTTTCCATTTACATATA [XGTACX_site3889]” it was 10.8 ± 0.48; in that of “TAAGCCTTTCTATTATGTACTTATTAAAACATGTAG [XGTACX_site8022]”, 11.2 ± 0.81.

With “CTTATATTAAAACACACACACGCACAAAACAGAAAT [CACACA_site1462]”, the “gcPBM binding intensity (ln)” value turned out to be 10.6 ± 0.48. Then “AAATTTATTTCTGTGTGTCCACAAAAAAAAATCTTT [XGTACX_site691]”, with 11.3 ± 0.81; and “TTTTTTTCTCTTTTTATTACAAAAAGGGTTTATATA [TGCATGCA_negctrl_site75]”, with 9.96 ± 0.23. Turning to “ATTATATTAATATATATATATATATATATAATAATA [CACACA_negctrl_site437]”, the “gcPBM binding intensity (ln)” value is 9.62 ± 0.23. In the case of “TAATATTATATTATATGTACATAACAAATTATATTT [XGTACX_site4296]” it was 11.3 ± 0.86; in that of “ATGAAAAAATTTAAATGTACATTACATATATTTATT [XGTACX_site2524]”, 10.8 ± 0.5; in that of “AAAAATTACAAAAATGCATGTACTATTCATATTTTT [TGCATGCA_site918]”, 10.8 ± 0.47.

“AAAAAAAATTCCAGTACACACAATAATACTAAAAAT [CACACA_site2801]”: the “gcPBM binding intensity (ln)” value is 11.1 ± 0.86. In the case of “ATGAGTAACATATTTGTGCACATATGGTTATTTTTA [GTGCAC_site9541]” it was 10.3 ± 0.12. Then “ATAAAAAACAGTGGCACACATTATGTATCCACCTTT [CACACA_site5958]”, with 10.5 ± 0.18; and “CATTTATTATGATAAAGTACTTAAATTAATAGATAA [XGTACX_site3566]”, with 11.3 ± 0.78. Regarding “ATGCATATAATTATATGTACATATAAGAAATATATA [XGTACX_site517]”, the “gcPBM binding intensity (ln)” value turned out to be 11.1 ± 0.59. In the case of “CATAATATGTGGACTTTACACACTTGTTTTAAAATT [CACACA_site819]” it was 10.9 ± 0.54. In the case of “TCTTTTTTTTTTTTTTTTTCTTCTTCTCAATATAAA [GTGCAC_negctrl_site303]” it was 9.79 ± 0.29; in that of “TATGCACACAATATATGTACTTATATATTTTAAAAA [XGTACX_site5482]”, 11.2 ± 0.79; in that of “TTTTATAAAAAAACTATAAAAATATATAGTACTTAA [CACACA_negctrl_site440]”, 10.9 ± 0.75. Regarding “TAGTGTATGATAATATGTACATACATTTATATAATA [XGTACX_site6330]”, the “gcPBM binding intensity (ln)” value was determined as 11.2 ± 0.67.

On to “AGGACACATATATGCAAAAAAAAAAAAAAAAAAAAA [TGCATGCA_negctrl_site427]”, for which the “gcPBM binding intensity (ln)” value amounted to 9.75 ± 0.51. In the case of “TTCCGAACGACCTAAAGTACATGTATTTCAACTTTT [XGTACX_site1220]” it was 11.1 ± 0.57.
